Reference: the supplement of paper PMC12217912
The other results are listed elsewhere or left out. Sequences were assembled here from the parent chain. Inactive controls read about 0.05.

B1: TEV protease; numbered along this chain (parent)
chain: MGESLFKGPRDYNPISSSICHLTNESDGHTTSLYGIGFGPFIITNKHLFRRNNGTLVVQSLHGVFKVKDTTTLQQHLVDGRDMIIIRMPKDFPPFPQKLKFREPQREERICLVTTNFQTKSMSSMVSDTSCTFPSGDGIFWKHWIQTKDGQCGSPLVSTRDGFIVGIHSASNFTNTNNYFTSVPKNFMELLTNQEAQQWVSGWRLNADSVLWGGHKVFMVKPEEPFQPVKEATQL

Variants of: B1
Assay: raw area under fraction-flipped curve 0-4 h after induction (AUC4h, not background-subtracted), DNA-recorder readout of cleavage of the substrate (dimensionless); higher = more cleavage of the substrate by the protease variant
Conditions: temperature: 34 °C; time window: 0-4 h after rhamnose induction
Experimental: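 In vivo DNA recorder in E. coli TOP10(DE3) ΔrhaA at 34 °C. Each TEVp single-site mutant (parent TEVp 0) is paired with a single-site variant of the 7-mer TEVs (canonical ENLYFQ|S). The substrate sits between flexible linkers in a Bxb1-sfGFP-TEVs-SsrA fusion, so cleavage stabilises Bxb1 and speeds flipping of a recombination array, read by NGS. The value is the raw area under the fraction-flipped curve over 0-4 h after rhamnose induction (AUC4h), with ≥20 reads per time point. It is not background-subtracted; inactive controls average about 0.047.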
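Further: Bxb1 expression induced with 0.2% (w/v) L-rhamnose at OD600 near 0.5, cultures sampled hourly, flipped fraction per protease–substrate barcode pair counted by paired-end Illumina sequencing.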

Variant	area with substrate ENLYAQS	area with substrate ENLYDQS	area with substrate ENLYEQS	area with substrate ENLYGQS	area with substrate ENLYHQS	area with substrate ENLYIQS	area with substrate ENLYMQS	area with substrate ENLYNQS	area with substrate ENLYPQS	area with substrate ENLYRQS	area with substrate ENLYVQS	area with substrate ENLYWQS	area with substrate ENLYYQS	area with substrate ENLYCQS	area with substrate ENLYKQS	area with substrate ENLYQQS	area with substrate ENLYSQS	area with substrate ENLYLQS	area with substrate ENLYTQS
N177D	0.0796	0.0433	0.0732	0.0646	0.0531	0.0856	0.0795	0.071	0.0712	0.0625	0.113	0.0487	0.0679						
Y179C	0.0457		0.0554	0.0636	0.0617	0.0451			0.0568	0.0524	0.0533	0.0599		0.048	0.048	0.0563	0.0487		
Y179F	0.0702		0.0566		0.0712			0.0585	0.066	0.0637			0.0477			0.0642	0.0724		
F180K	0.0506	0.0554	0.053	0.0564	0.0492	0.0515	0.0264			0.0453	0.0531			0.0555	0.057	0.0651	0.0428		
F180M	0.0598	0.059	0.0732			0.113	0.108			0.0576	0.101	0.0794			0.0425		0.078	0.0836	0.0987
N186D	0.059	0.0633	0.0578	0.0659	0.0918		0.0768	0.0679		0.066	0.0803	0.0942			0.0589	0.0723		0.0839	0.0077
N186G	0.0907	0.0653							0.0749			0.0959							
M188A	0.0703	0.0636	0.124		0.0603	0.152		0.0557	0.0573	0.0524	0.135	0.0881			0.0497	0.0405	0.0839	0.0977	
E189F	0.0763	0.0717	0.0874	0.0669		0.129		0.0506	0.0679	0.0514	0.099	0.0689				0.053			0.0439
L191S	0.0658				0.0916			0.0418	0.0616						0.0203	0.0496	0.031		
N193L	0.111	0.0503	0.0655	0.0767	0.0643	0.138	0.081	0.0442	0.0737	0.0545	0.105			0.0722		0.0442		0.0522	0.0453
A196S	0.0731	0.0795	0.061	0.0713	0.0617			0.0661	0.0694	0.0568	0.122	0.0834	0.088		0.0534	0.0578	0.0586	0.0839	0.0656
Q197M	0.0723	0.0666	0.0494		0.114	0.135		0.0683	0.0708		0.134	0.106					0.0728	0.0744	
Q198H	0.0716		0.072		0.0674			0.068		0.0598	0.101		0.0689				0.0602		
Q198M	0.069		0.0743	0.0539	0.0516	0.1			0.0629	0.0483	0.108	0.0809	0.0592		0.0573	0.0922	0.0748		
R204S	0.0966	0.0612	0.0689	0.0599	0.0607	0.113	0.107	0.0715	0.0719	0.0691	0.0746	0.0847	0.0768	0.115	0.0619	0.0757	0.091	0.118	0.0805
L205K	0.0672	0.0982	0.0599		0.0545		0.0664			0.0649		0.0419				0.0639	0.0345	0.0741	
A207Q	0.057	0.0752	0.083		0.0586		0.101	0.0734			0.0865		0.0666		0.0808	0.0637			
D208P	0.0628		0.0627	0.0726		0.0975		0.061	0.0657	0.0685		0.0599	0.0692	0.0737				0.0662	0.0672
V210H	0.0648		0.0663		0.0833	0.0771	0.0891	0.065		0.0688	0.124	0.0605	0.0889		0.058		0.0768		
V210R	0.0645				0.0673		0.08	0.0583			0.106	0.0521	0.071		0.0691		0.0697		
L211R	0.0754		0.0592	0.0561	0.0567			0.0388		0.0479	0.0988	0.0906					0.0602		
W212C	0.0733		0.0835	0.058	0.0775		0.0614	0.0618					0.0921		0.0467	0.0512			
W212R	0.0634	0.0645	0.0592		0.0652		0.0481	0.0533	0.061		0.0574		0.0482		0.0648	0.0615		0.0413	0.0543
G213V	0.0604	0.0496			0.0676			0.0585	0.0471	0.0563		0.0027		0.0334	0.0768	0.0452			
V217K	0.0632	0.068	0.056		0.0613		0.0473		0.0617			0.0434	0.0255	0.0826		0.0621	0.0438		0.0579
V217T	0.0791	0.0443	0.0617	0.0657	0.0704	0.0703	0.0652	0.0597	0.0618	0.0825		0.0684	0.0539		0.0541		0.0501		
V217Y	0.0637	0.0649	0.0642	0.0646	0.0729	0.0293	0.0403	0.0637		0.067			0.0561			0.0601	0.065	0.0615	0.0577
F218W	0.0991	0.0821		0.0758		0.0928		0.065	0.0638		0.0955	0.0859			0.0188				
K221G	0.0892	0.062		0.0637	0.0527	0.07	0.0685	0.0663		0.0635		0.0703	0.0931	0.0827	0.0549				0.0472
